Structures are written as SMILES. In all, about 310,000 compounds went through this assay and about 2,200 (0.71%) showed an effect of 50% or more. The effect is printed as a negative number. The list shows a part of the results.

The record followed here is publication PMC4336329 (PLoS ONE, 2015).

human ether-à-go-go-related gene (hERG) potassium channel, sequence (Q12809 whole entry, looked up): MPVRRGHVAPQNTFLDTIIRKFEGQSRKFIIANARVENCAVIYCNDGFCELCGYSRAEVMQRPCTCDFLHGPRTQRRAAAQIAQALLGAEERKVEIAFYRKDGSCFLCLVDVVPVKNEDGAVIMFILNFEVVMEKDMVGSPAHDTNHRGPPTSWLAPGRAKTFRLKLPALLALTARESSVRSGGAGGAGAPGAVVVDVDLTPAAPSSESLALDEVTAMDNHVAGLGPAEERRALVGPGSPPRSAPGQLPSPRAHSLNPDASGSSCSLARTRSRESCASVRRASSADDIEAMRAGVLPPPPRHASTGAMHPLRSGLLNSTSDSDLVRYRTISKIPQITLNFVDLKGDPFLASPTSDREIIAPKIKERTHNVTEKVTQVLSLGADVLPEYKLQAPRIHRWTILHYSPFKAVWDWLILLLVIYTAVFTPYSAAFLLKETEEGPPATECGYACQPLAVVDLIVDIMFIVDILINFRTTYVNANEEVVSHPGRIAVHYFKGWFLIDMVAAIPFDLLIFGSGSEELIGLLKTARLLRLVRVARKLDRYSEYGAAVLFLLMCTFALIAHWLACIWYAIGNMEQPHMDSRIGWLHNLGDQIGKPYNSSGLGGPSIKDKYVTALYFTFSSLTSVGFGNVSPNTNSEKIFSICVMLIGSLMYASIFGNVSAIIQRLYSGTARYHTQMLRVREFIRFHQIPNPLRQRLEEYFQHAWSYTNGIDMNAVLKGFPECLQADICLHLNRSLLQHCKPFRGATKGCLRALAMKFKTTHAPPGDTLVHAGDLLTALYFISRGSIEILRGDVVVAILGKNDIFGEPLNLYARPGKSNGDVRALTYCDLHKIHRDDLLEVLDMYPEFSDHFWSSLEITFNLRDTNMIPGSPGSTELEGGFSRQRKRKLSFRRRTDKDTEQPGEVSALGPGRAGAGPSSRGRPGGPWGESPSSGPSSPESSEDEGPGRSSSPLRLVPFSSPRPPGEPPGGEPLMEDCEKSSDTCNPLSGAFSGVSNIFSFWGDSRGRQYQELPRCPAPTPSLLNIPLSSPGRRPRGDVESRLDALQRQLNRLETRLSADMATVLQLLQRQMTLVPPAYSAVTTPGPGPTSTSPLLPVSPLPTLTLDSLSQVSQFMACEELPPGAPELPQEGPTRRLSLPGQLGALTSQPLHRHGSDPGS

The experiment concerns the target human ether-à-go-go-related gene (hERG) potassium channel (human, UniProt Q12809). Briefly: primary screen, population patch clamp on CHO cells stably expressing hERG.
Turning to `CC(=O)O.COc1ccc(N2C(=O)C(CC(N)=O)N(NC(=O)CCc3ccccc3)C2=O)cc1` (stereo not drawn), the “hERG current change (%, negative = inhibition) at 1uM” value was found to be 11.9%. On to `O=C1NCCn2nc3ccccc3c21`, for which the “hERG current change (%, negative = inhibition) at 1uM” value stood at 18.3%. Next, `CC1(NC(=O)c2ccccc2)CCN(CCc2cccs2)C1=O` (stereo not drawn): 13.8%; `Cc1cnc(C(=O)Nc2ccc(F)cc2)cn1`: 13.2%.

As to `CCOc1cc(N2CCOCC2)c(OCC)cc1NC(=O)COc1cccc(Cl)c1`, the “hERG current change (%, negative = inhibition) at 1uM” value is -0.225%. Take `CCN1C(C)=C(C)S/C1=C1\SC(=S)N(N)C1=O`: the “hERG current change (%, negative = inhibition) at 1uM” value was found to be 10.8%. Turning to `CCn1c(SCC(=O)Nc2cc(C)on2)nnc1-c1ccccc1`, the “hERG current change (%, negative = inhibition) at 1uM” value came to 10.5%. `CCCCCCCCC(=O)N/N=C(\C)c1ccc(O)cc1O`: the “hERG current change (%, negative = inhibition) at 1uM” value stood at 1.66%. For the compound `CCCn1c(CN2CCCCC2CC)nc2c1c(=O)n(C)c(=O)n2C` (stereo not drawn), the “hERG current change (%, negative = inhibition) at 1uM” value is on record as 8.63%. Next, `C=CCNC(=S)Nc1sc2c(c1C(=O)OCC)CC(C)(CC)OC2` (stereo not drawn): -3.13%. The result for `CC(C[N+](C)(C)C)OC(N)=O.[Cl-]` (stereo not drawn) reads 9.87%; that for `O=S1(=O)c2ccccc2C(CCO)N1Cc1ccccc1` (stereo not drawn), 9.77%; that for `O=C(COc1ccccc1Cl)NCCC1=CCCCC1`, 9.45%. As to `O=C(CCCOc1ccc(Cl)cc1Cl)N/N=C/c1ccc(Cl)cc1`, the “hERG current change (%, negative = inhibition) at 1uM” value is recorded as 1.91%. Take `CCCN(CC(=O)Nc1ccccc1C)C(=O)c1sc2ccccc2c1Cl`: the “hERG current change (%, negative = inhibition) at 1uM” value was 8.62%.

In the case of `CC(=O)c1ccc(OCCCC(=O)Nc2ccc3c(c2)OCCO3)cc1`, the “hERG current change (%, negative = inhibition) at 1uM” value is listed as 14.5%.

`CCOc1ccc(NC(=O)CSc2nnc(C)n2CC2CCCO2)cc1` (stereo not drawn): the “hERG current change (%, negative = inhibition) at 1uM” value was determined as 10.9%. Turning to `CCN(CC)CCN1C(=O)C(=O)/C(=C(/O)c2ccc(C)cc2)C1c1cccnc1` (stereo not drawn), the “hERG current change (%, negative = inhibition) at 1uM” value amounted to 9.31%. Take `Cc1ccc(/C=C(\C#N)C(=O)N2CCCC2)c(C)c1`: the “hERG current change (%, negative = inhibition) at 1uM” value is 23.5%. As for `Cc1cc(C)n2c(SCCC(C)C)nnc2n1`, the “hERG current change (%, negative = inhibition) at 1uM” value is -6.81%. In the case of `CCCOc1cc(C)c(Cl)cc1S(=O)(=O)N(CC)CC`, the “hERG current change (%, negative = inhibition) at 1uM” value is reported as 3.85%.

For the compound `O=C(O)CCn1cc(C(=O)O)c(-c2ccccc2)n1`, the “hERG current change (%, negative = inhibition) at 1uM” value worked out at 14.4%. For the compound `O=C(NCc1cccs1)C1CCCN(C(=O)Nc2ccccc2)C1` (stereo not drawn), the “hERG current change (%, negative = inhibition) at 1uM” value turned out to be 12.7%. On to `Nc1ccc2c3c(cccc13)CC2`, for which the “hERG current change (%, negative = inhibition) at 1uM” value is on record as 2.18%.

In the case of `CC1CCc2c(C(=O)OCC(=O)Nc3cccc(S(=O)(=O)N4CCCCCC4)c3)csc2C1` (stereo not drawn), the “hERG current change (%, negative = inhibition) at 1uM” value was 10.4%.

With `CCc1ccc2nc(Nc3ccc(OC)cc3OC)c(C#N)cc2c1`, the “hERG current change (%, negative = inhibition) at 1uM” value was 7.84%. Turning to `COC(=O)NC(=S)N1CCOCC1`, the “hERG current change (%, negative = inhibition) at 1uM” value came out at 5.23%. As to `COc1ccc(C(=O)C2CCN(C(=O)c3ccco3)CC2)cc1`, the “hERG current change (%, negative = inhibition) at 1uM” value worked out at 9.65%. Next, `O=C(O)COn1c(-c2ccc(Cl)cc2)nc2ccc(Cl)cc21`: 14.8%.

In the case of `CC(C)c1cc(C(=O)N/N=C/c2c[nH]c3ccccc23)n[nH]1`, the “hERG current change (%, negative = inhibition) at 1uM” value was found to be 10.8%. Next, `COC(=O)C1=C(C)OC(N)=C(C#N)C1c1ccc(OC)c(CSc2ccccn2)c1` (stereo not drawn): 2.68%; `COc1ccccc1NS(=O)(=O)c1cc(NC(=S)NCCN2CCOCC2)ccc1N1CCOCC1`: 0.508%. For the compound `Cc1cc(=O)oc2c(C)c(OCC(=O)NCCCN3CCCC3=O)ccc12`, the “hERG current change (%, negative = inhibition) at 1uM” value amounted to 15.8%.

Take `CCOc1ccc(N/N=C(/C#N)C(N)=O)cc1`: the “hERG current change (%, negative = inhibition) at 1uM” value was 3.39%. With `O=C(NCc1ccco1)C12CN(Cc3ccccc3)CC1C(c1ccc([N+](=O)[O-])cc1)=NO2` (stereo not drawn), the “hERG current change (%, negative = inhibition) at 1uM” value is reported as -21.7%.

For `O=C(NCCCn1ccnc1)Nc1cccc2ccccc12`, the “hERG current change (%, negative = inhibition) at 1uM” value was 8.71%.

As to `Br.c1ccc2oc(SCc3cn4ccsc4n3)nc2c1`, the “hERG current change (%, negative = inhibition) at 1uM” value is 6.12%. In the case of `CCCCn1c(=O)[nH]c(=O)c2c1nc(COC(=O)c1c(C)noc1C)n2CCC`, the “hERG current change (%, negative = inhibition) at 1uM” value was -20.9%. Take `Cc1onc(-c2c(F)cccc2Cl)c1C(=O)OCN1C(=O)c2ccccc2C1=O`: the “hERG current change (%, negative = inhibition) at 1uM” value is reported as 11.7%.

In the case of `Cc1cc(C)cc(NC(=O)CCC(=O)Nc2cc(C)on2)c1`, the “hERG current change (%, negative = inhibition) at 1uM” value turned out to be 14.3%. Turning to `CCOc1cc(C(=O)Nc2ccc3c(c2)OCO3)ccc1OCCOc1ccccc1Cl`, the “hERG current change (%, negative = inhibition) at 1uM” value is on record as 6.95%. `COc1ccc(-n2c(C)cc(C(=O)CSc3nn4c(=O)c(C(C)(C)C)nnc4s3)c2C)cc1`: the “hERG current change (%, negative = inhibition) at 1uM” value was found to be 4.53%.

`COc1ccc(-c2cn3ccc4ccccc4c3n2)cc1`: the “hERG current change (%, negative = inhibition) at 1uM” value was 13.5%.

With `Cc1ccc(CNC(=O)c2cc(=O)c3cc(C)ccc3o2)cc1`, the “hERG current change (%, negative = inhibition) at 1uM” value is on record as 17.7%.

Consider `Cc1cc(C)nc(NC(=O)COc2cc(Cl)cc(Cl)c2)n1`, for which the “hERG current change (%, negative = inhibition) at 1uM” value is listed as 8.54%.
